Source: the supplement of paper PMC3334620
Whole data set: some 33,000 sequences, median “E-score (-0.5 to 0.5)” near -0.04, cut for the highest 2% near 0.36. The list shows a part of the results.

Each sequence was assayed against T1, Hmlalpha2 (UniProt P0CY09) (assay: PBM E-score (8-mer binding enrichment) (E-score (-0.5 to 0.5)); higher = stronger / more preferred TF binding; most listed sequences are background and not binding sites). Details: protein concentration: 200 nM; construct: GST-full length.
T1 sequence: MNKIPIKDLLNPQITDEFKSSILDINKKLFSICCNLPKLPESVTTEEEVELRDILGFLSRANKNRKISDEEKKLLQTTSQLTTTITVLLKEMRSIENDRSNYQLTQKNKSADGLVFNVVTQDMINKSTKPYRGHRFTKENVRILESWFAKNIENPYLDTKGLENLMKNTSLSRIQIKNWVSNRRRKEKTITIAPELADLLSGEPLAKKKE
Experimental: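 Universal 'all 10-mer' protein binding microarrays (Agilent AMADID 015681) probed with GST-tagged S. cerevisiae TFs (full-length or DBD) made by in vitro transcription/translation (PURExpress), about 100-200 nM. Bound TF was detected with fluorescent anti-GST. Each ungapped 8-mer (which stands for itself and its reverse complement) is scored by the PBM enrichment score (E-score), a modified Wilcoxon-Mann-Whitney statistic from -0.5 to +0.5, computed with the Universal PBM Analysis Suite. Scale: above 0.35 generally sequence-specific binding.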

Sequence	PBM E-score
CAACACAA	0.35
GAACATGC	0.272
AATTCAAT	0.2
ATCAGCAC	-0.0565
AGCGATCG	-0.035
CAATCGCC	-0.118
AGTCGAAC	-0.107
ACGAAATC	0.0388
GCCGCCAA	-0.118
GGGCGTCA	-0.318
GATTTCAC	0.145
CGCAAATA	0.109
CCCTCACC	-0.363
ATTGCCCG	-0.263
ATTCTTGA	0.0153
TATTGAAA	0.17
GCTGATCA	-0.094
CATGGCAG	0.0777
AGCGCTGA	-0.063
CCGAGCCG	-0.161
ATCAACCA	-0.0494
CCGGTTAC	0.11
GGTCCTAC	-0.306
ATGATCAA	0.163

Sequence	PBM E-score
ATTTAATG	0.248
ACATTGGA	0.043
ATGTAGCC	0.0415
AGAGCCGC	-0.241
ACGAAGCT	0.0843
CGCATCAG	-0.0761
CCGCAACA	0.166
CCGTTCTA	0.00472
TGAAGGAA	-0.0399
CGCGCCAA	0.119
ATATCACC	0.0884
ACGGGTCG	0.118
CTAGTGGA	-0.217
AATGCTAC	0.204
CGCATTCA	0.233
GTCTCTTA	-0.016
AAGCAACG	0.0094
AACCTAGA	-0.109
GAACCGCA	-0.0253
ATGACTGA	-0.136
ATATACGA	0.15
ATTCGTCC	0.0913
CGCAGCGC	-0.118
AAAGTGAG	-0.0742

Sequence	PBM E-score
ACATGTCT	0.305
ATAGCGAC	0.106
AGAGGGCA	-0.167
GCGCCCAC	-0.22
ACGAAACT	0.0327
GTCCGTAA	0.141
ATCTAGTA	0.282
CCGGAGAA	-0.259
CGTGTGAC	0.0258
GCCATCCA	-0.202
ATCAGGGA	-0.151
AAGTTGGC	-0.123
ATGCTATG	0.244
GCTGTTCC	-0.312
GAGCTTAA	-0.0642
AGGAGTAA	0.0454
CCGGTACG	-0.214
CTTCCACC	-0.141
GCACTCGA	-0.0979
CCTTGGCG	-0.283
CGAATAGA	-0.159
CATAAGCG	0.033
ACCAGTTC	-0.213
ACTTATTA	0.155

Sequence	PBM E-score
GTATATTA	0.29
ACTCATTC	-0.125
AGGTCTAC	-0.0603
CGCTATCC	-0.013
TCTCCAAA	0.0714
AAAGGCTT	-0.162
GATTCTTA	0.144
TGATAGAA	0.0602
AATGTTGA	0.256
AAGTGCTG	0.107
ACTCTAAG	-0.174
CGATTGCA	0.0235
ACTAGTCG	-0.198
CCCCTTAG	-0.353
CTGTCCTA	-0.145
AACAACCC	0.155
GATTCGTA	0.0776
ATTCGTGC	0.149
AATTCTGG	-0.0201
CATCGAAG	-0.0231
ATCACTGC	-0.0263
CGCCTCCA	-0.205
